Laboratory results as given in PMC4336329 (PLoS ONE, 2015).
Hit rate of the full screen: of about 310,000 compounds, about 2,200 (0.71%) showed an effect of 50% or more. Effects have a minus sign here. The list shows a part of the results.

Target: human ether-à-go-go-related gene (hERG) potassium channel (human, UniProt Q12809)
Experiment: primary screen, population patch clamp on CHO cells stably expressing hERG

Sequence of human ether-à-go-go-related gene (hERG) potassium channel (Q12809 whole entry, looked up): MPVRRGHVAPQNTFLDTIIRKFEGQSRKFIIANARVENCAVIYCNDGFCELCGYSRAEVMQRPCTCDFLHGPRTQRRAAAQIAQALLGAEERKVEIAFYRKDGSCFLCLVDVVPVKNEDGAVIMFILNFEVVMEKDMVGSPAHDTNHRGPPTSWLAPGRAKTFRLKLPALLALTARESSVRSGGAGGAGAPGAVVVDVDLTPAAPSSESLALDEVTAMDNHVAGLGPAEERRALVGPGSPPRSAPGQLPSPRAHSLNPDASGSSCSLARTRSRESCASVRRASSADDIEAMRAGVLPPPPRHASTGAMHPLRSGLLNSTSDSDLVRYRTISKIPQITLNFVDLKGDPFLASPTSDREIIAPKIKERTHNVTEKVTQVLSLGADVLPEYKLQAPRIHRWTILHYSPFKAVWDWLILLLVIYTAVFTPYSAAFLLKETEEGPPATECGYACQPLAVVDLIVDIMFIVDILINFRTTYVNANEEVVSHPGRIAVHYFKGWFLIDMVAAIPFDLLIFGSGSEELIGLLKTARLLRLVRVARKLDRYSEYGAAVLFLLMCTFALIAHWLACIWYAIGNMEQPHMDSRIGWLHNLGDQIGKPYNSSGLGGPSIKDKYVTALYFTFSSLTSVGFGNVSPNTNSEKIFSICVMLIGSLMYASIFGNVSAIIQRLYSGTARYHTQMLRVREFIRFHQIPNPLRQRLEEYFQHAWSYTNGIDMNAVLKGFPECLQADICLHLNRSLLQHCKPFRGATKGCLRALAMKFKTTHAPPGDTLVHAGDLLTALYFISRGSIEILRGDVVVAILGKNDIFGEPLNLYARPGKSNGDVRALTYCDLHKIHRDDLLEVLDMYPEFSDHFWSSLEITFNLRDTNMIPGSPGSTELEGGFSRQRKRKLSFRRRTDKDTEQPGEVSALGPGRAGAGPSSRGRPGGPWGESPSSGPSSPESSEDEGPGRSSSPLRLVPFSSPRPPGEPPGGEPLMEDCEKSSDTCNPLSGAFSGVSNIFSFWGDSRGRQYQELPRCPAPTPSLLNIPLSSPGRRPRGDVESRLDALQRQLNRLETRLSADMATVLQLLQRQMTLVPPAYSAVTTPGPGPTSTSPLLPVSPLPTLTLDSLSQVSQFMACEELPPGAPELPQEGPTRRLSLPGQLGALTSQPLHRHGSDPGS

Row | SMILES | hERG current change (%, negative = inhibition) at 1uM [%]
1 | CCOc1ccc2c(c1)C(=O)C(=O)N2CC1COc2ccccc2O1 (stereo not shown) | 10.7
2 | Cc1ccc(C(=O)NNC(=O)CCN2C(=O)C3CCCCC3C2=O)cc1 (stereo not shown) | -1.6
3 | CN(CCOc1ccccc1)CC(=O)Nc1cccc(Br)c1.O=C(O)C(=O)O | 10.6
4 | COc1ccc2c(C(=O)CN3CC(C)OC(C)C3)c[nH]c2c1 (stereo not shown) | 6.86
5 | Cl.NC(=NCCc1ccccc1)NC(=O)c1cc(Cl)ccc1O | 7.94
6 | Cc1ccccc1S(=O)(=O)Cc1ccc(C(=O)NC2CCC(C)CC2)o1 (stereo not shown) | 6.73
7 | Cc1cc(=O)n2c3ccccc3n(CC(O)CN3CCN(CCO)CC3)c2c1C#N (stereo not shown) | -1.4
8 | COc1ccc(NC2CCCN(C(=O)c3ccc(OC)o3)C2)cc1 (stereo not shown) | 8.6
9 | O=C(COc1ccccc1Cl)NCCNC(=O)c1ccccn1 | 25.4
10 | Cn1c(-c2ccc(=O)[nH]c2)nc2ccccc21 | 6.08
11 | CCc1ccc2nc(NC(=O)c3ccc(N4C(=O)CCC4=O)cc3)sc2c1 | 11.7
12 | Cc1ccc(/C=N/c2sc3c(c2C(N)=O)CCCC3)o1 | 5.88
13 | O=[N+]([O-])c1ccc(COn2nnc3ccccc32)cc1 | 0.127
14 | CC(=O)N1C(C(=O)O)CSC1c1ccc(C)cc1 (stereo not shown) | 12.1
15 | O=C1CC2(CCN(C(=O)c3ccc(Cl)cc3)CC2)Oc2ccccc21 | -63.7
16 | O=C(C1CC(Cl)CN1S(=O)(=O)c1ccc(Cl)cc1)N1CCOCC1 (stereo not shown) | 15.6
17 | C/C=C/c1ccc(OCCOc2ccc(C=O)cc2)c(OC)c1 | 22.1
18 | C=CCn1c(C)cc(C(=O)CN2C(=O)c3ccccc3S2(=O)=O)c1C | 4.57
19 | Cc1ccc(CNC(C)c2ccccc2)cc1.Cl (stereo not shown) | 5.75
20 | CCOc1ccc(CNC(=O)c2ccc(Sc3ccc(C)cc3)c(NC(C)=O)c2)cc1 | 5.97

Row | SMILES | hERG current change (%, negative = inhibition) at 1uM [%]
21 | CC(=O)Nc1ccc(C)c(NC(=S)Nc2ccc(F)cc2)c1 | 15.5
22 | CCOc1ccc(N2CC(C(=O)NCCCc3ccccc3)CC2=O)cc1 (stereo not shown) | -35.2
23 | CCCOC(=O)C1=C(C)NC(=O)NC1c1ccc(Br)s1 (stereo not shown) | 12.9
24 | COc1cccc(/C=C2\SC(=O)NC2=O)c1OCc1ccc(C(=O)O)cc1 | 13.5
25 | COC(=O)CSc1ccc(S(=O)(=O)N2CCC(C)CC2)cc1[N+](=O)[O-] | 5.28
26 | Cc1ccc(CNC(=O)Cn2cnc3c(NC(=O)OCc4ccccc4)ncnc32)o1 | -3.92
27 | Cc1ccc(NS(=O)(=O)c2cccc(C(=O)NCC3CCCO3)c2)cc1 (stereo not shown) | 14.1
28 | CC(=O)c1ccc(-c2nnc(CCC(=O)N(C)Cc3cnc4ccccn34)o2)s1 | 4.08
29 | O=[N+]([O-])c1nn(-c2ccc3c(c2)OCCO3)n(O)c1=NCCCO | 5.81
30 | O=[N+]([O-])c1ccc2sc(SCc3nc4ccccn4c3Br)nc2c1 | 23.3
31 | COc1cc(C(N)=O)cc(Cl)c1OC | 33.2
32 | C[C@@H](C(=O)Nc1ccc2ccccc2c1)[C@H]1C[C@]1(C)[C@H](NC(=O)c1cccnc1)c1ccccc1 | 5.03
33 | N=c1c2c(ncn1Cc1ccco1)Oc1ccc3ccccc3c1C2c1ccccc1 (stereo not shown) | 3.87
34 | COc1cccc(C(=O)N(C)C(C)c2nc3ccccc3s2)c1 (stereo not shown) | 3.93
35 | CCc1c(C)sc(NC(=O)c2cccs2)c1C(=O)OC(C)C | 9.07
36 | CCCc1nnc(NC(=O)CCC(=O)N2CCN(c3ccccc3)CC2)s1 | 2.72
37 | N#Cc1sc2nc(-c3cccs3)cc(-c3ccc(Cl)cc3)c2c1N | 6.9
38 | O=C1C2C3C=CC(C2C(=O)N1C1CCCCC1)C1C2C(=O)N(C4CCCCC4)C(=O)C2C31 (stereo not shown) | 3.92
39 | COc1cccc(-c2nn(C)c3sc(C(=O)N4CCOCC4)cc23)c1 | 7.32
40 | COC(=O)C1(C)NC(c2cccs2)C2C(=O)N(c3ccc(F)cc3)C(=O)C21 (stereo not shown) | 16.2

Row | SMILES | hERG current change (%, negative = inhibition) at 1uM [%]
41 | O=C(COC(=O)c1ccc(Cl)c(S(=O)(=O)N2CCOCC2)c1)Nc1ccc2[nH]c(=O)[nH]c2c1 | 11.2
42 | Cc1cc(C)c2cccc(N)c2n1 | 20.4
43 | CCCCNS(=O)(=O)c1ccc2nc(-c3cccnc3)cc(C(=O)NCCCN(CC)CC)c2c1 | -17
44 | Cc1ccc(NS(=O)(=O)c2ccc(C(=O)OCC(=O)N3CCCCC3)cc2)cc1 | 3.74
45 | O=C(Cc1ccc(F)cc1)NCc1cccnc1 | 8.09
46 | Br.CCn1c(=N)n(CC(=O)c2ccc(Cl)c(Cl)c2)c2ccccc21 | -10.4
47 | O=C(Oc1ccc(Cl)cc1N1C(=O)CCC1=O)c1ccco1 | 9.56
48 | O=C1CC(NCc2ccccc2F)C(=O)N1c1ccccc1 (stereo not shown) | 12.5
49 | CCn1c(Cc2c(C)[nH]c3ccccc23)n[nH]c1=S | -13.4
50 | c1ccc(-c2ccc(-c3ccncn3)cc2)cc1 | 15.6
51 | Cc1ccc(C(=O)NCC(=O)OCCCn2c(=O)[nH]c3ccccc32)cc1 | 7.53
52 | C=C(C)Cn1cnc2c(oc3nc4c(cc32)CCCC4)c1=O | 10.1
53 | C=CC(=O)NC(C)(C)CCN1CCOCC1 | 8.55
54 | Clc1nc(-c2ccccc2)cc(-c2ccccc2)n1 | -1.29
55 | COCCn1c(=O)[nH]c2cc(C(=O)NC(C)C)ccc2c1=O | 18.4
56 | CC(=O)c1c(C)n(-c2cccc(Cl)c2)c2ccc(O)cc12 | 7.93
57 | Cc1ccc(NC(=O)CCNS(=O)(=O)c2cccc3nsnc23)cc1F | 7.62
58 | O=C1N/C(=N/O)S/C1=C/c1cccc([N+](=O)[O-])c1 | 20.8
